Experimental data as given in US20230045873A1 (ONCOONE RESEARCH AND DEVELOPMENT, published 2023).

Biological target: T1, oxMIF (recombinant human MIF immobilized into microwell plates, transforming MIF to oxMIF) (human, UniProt P14174 2-115)
T1 construct: also called immobilized MIF (oxMIF); immobilized oxMIF
Assay: ELISA on immobilized MIF (oxMIF), protein L-HRP detection, mean of triplicate
Protocol: Recombinant human MIF (1 μg/ml) diluted in PBS was immobilized into microwell plates (transforming MIF to oxMIF according to Thiele M. et al., 2015, J Immunol 2015; 195:2343-2352). After blocking, the bispecific antibodies were added to the plates at different concentrations. Bound bispecific antibodies were detected using protein L-HRP conjugate. Plates were developed by adding 3 3′5 5′tetramethylbenzidine (TMB) and chromogenic reaction was stopped with […]. OD was measured at 450 nm.
The binding curves of anti-oxMIF/CD3 bispecific antibodies C0061 and C0062 binding towards immobilized MIF (oxMIF) in an ELISA are depicted in FIG. 4. The monospecific anti-oxMIF antibody C0008 was used as positive control for oxMIF binding. EC50 values of the binding curves, which reflect rough KD estimates, were calculated by 4-parameter fit.

T1 sequence (P14174 2-115 limits assumed): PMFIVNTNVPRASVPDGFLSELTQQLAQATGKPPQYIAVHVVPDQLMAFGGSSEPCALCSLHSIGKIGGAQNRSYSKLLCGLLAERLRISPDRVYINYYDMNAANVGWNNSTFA

EC50: 24.7 nM
B1: C0062 (anti-oxMIF scFv and anti-CD3 scFv fused to Fc; scFv(oxMIF)-scFv(CD3)-Fc; (scFv)2-Fc) (bispecific antibody)
chain 1: DIQMTQSPSSLSASVGDRVTITCRSSQRIMTYLNWYQQKPGKAPKLLIFVASHSQSGVPSRFRGSGSETDFTLTISGLQPEDSATYYCQQSFWTPLTFGGGTKVEIKGGGGSGGGGSGGGGSEVQLLESGGGLVQPGGSLRLSCAASGFTFSIYSMNWVRQAPGKGLEWVSSIGSSGGTTYYADSVKGRFTISRDNSKNTLYLQMNSLRAEDTAVYYCAGSQWLYGMDVWGQGTTVTVSSGGGGS[human IgG1 Fc with changes cut from this listing]ASAWSHPQFEK
chain 2: QVQLVQSGAEVKKPGASVKVSCKASGYTFTRYTMHWVRQAPGQGLEWMGYINPSRGYTNYNQKFKDRVTLTTDKSSSTAYMELSSLRSEDTAVYYCARYYDDHYSLDYWGQGTLVTVSSGGSGGSGGSGGSGGSDIQMTQSPSSLSASVGDRVTITCSASSSVSYMNWYQQKPGKAPKRLIYDTSKLASGVPSRFSGSGSGTDFTLTISSLQPEDFATYYCQQWSSNPFTFGQGTKLEIKGGGGS[human IgG1 Fc with changes cut from this listing]AAAHHHHHH
notes: Monovalent for oxMIF and for CD3
